Assay results published in PubChem BioAssay AID1347055 (National Center for Advancing Translational Sciences (NCATS), 2019).
Screen size: about 54,000 compounds; about 120 (0.22%) were called active. This list was built around the results that the source calls inconclusive (neither active nor inactive); the mix of calls is not that of the screen. Calls come from the whole dose curve; as a rule, active = well fitted inhibition curve with a large enough effect; inconclusive = small, poorly fitted or top-dose-only effect, or effect the other way; inactive = flat fitted curve, though single readings scatter. No potency is given beside an inconclusive call; the fits are too rough.

target: Fumarate hydratase, mitochondrial (Homo sapiens) (UniProt P07954); test: Identification of activators of human fumarate hydratase by quantitative high-throughput screening; conditions: FH coupled MDH/diaphorase resazurin fluorescence, 15 min; activity change, negative = inhibition: at 79.9 µM (top of the series); note: the screen sought activators but most active calls are inhibition curves; nearly all actives have a fitted effect of over 45% in size
UniProt P07954, sequence (P07954 whole entry, looked up): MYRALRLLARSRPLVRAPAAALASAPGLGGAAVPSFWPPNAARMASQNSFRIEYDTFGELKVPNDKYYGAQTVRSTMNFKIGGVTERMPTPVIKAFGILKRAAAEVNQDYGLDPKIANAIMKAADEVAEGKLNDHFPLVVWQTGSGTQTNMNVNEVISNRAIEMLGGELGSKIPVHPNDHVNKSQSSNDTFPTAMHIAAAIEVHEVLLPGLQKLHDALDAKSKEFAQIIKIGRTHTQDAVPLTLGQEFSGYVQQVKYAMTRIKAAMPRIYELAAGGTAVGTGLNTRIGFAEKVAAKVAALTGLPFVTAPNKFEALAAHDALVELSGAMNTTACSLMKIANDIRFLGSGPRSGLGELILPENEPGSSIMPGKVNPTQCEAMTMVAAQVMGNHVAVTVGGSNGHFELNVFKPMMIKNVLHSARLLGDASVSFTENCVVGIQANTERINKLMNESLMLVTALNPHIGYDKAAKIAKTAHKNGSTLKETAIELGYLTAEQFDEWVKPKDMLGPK
% is set by controls: 0 for no effect and ±100 for the full control effect; potency is the fitted concentration of half-maximal effect; tags give direction and shape of the fitted curve.

| SMILES | Potency | activity change, negative = inhibition |
| --- | --- | --- |
| CC1=C(/C=C/C(C)=C/C=C/C(C)=C\C(=O)O)C(C)(C)CCC1 | inconclusive [inhibitor, single point] | – |
| CCc1ccc(NS(=O)(=O)c2ccc3[nH]cc(C(=O)NCc4ccc(C)cc4)c(=O)c3c2)cc1 | inconclusive [inhibitor, single point] | – |
| Cc1cc(OCC(=O)N2CCC(c3nc4ccccc4s3)CC2)ccc1Cl | inconclusive [inhibitor, single point] | – |
| Cc1cc2n(n1)CCCN2C(=O)Nc1ccc(F)c(Cl)c1 | inactive | – |
| COc1ccccc1NC(=O)CSc1cn(CC(=O)N2CCCC2)c2ccccc12 | inconclusive [inhibitor, full curve, poor fit] | – |
| CCOC(=O)c1cc(-c2ccccc2)n(CCC(=O)NCCc2ccccc2)c1C | inconclusive [inhibitor, single point] | – |
| CCN(CC)S(=O)(=O)c1ccc2c(c1)N(CC(=O)NCCCN1CCN(c3ccc(OC)cc3)CC1)C(=O)CO2 | inconclusive [inhibitor, partial curve] | – |
| COc1ccc(-n2cc(-c3ccc4c(c3)OCO4)n(CC(=O)Nc3cc(Cl)ccc3C)c2=O)cc1 | inconclusive [inhibitor, single point] | – |
| CCCCCn1c(CCCNC(=O)c2cccc(C)c2)nc2ccccc21 | inconclusive [inhibitor, single point] | – |
| Cc1ccc(Cl)cc1N1CCN(CCCNc2ncnc3onc(-c4ccc(Cl)cc4)c23)CC1 | inactive | – |
| CCOc1ccccc1CNC(=O)c1ccc2c(c1)sc1nc(-c3ccccc3)cn12 | inactive | – |
| C/C(=C\c1ccc(C(=O)O)cc1)c1ccc2c(c1)C(C)(C)CCC2(C)C | inconclusive [inhibitor, single point] | – |
| CN(C)CCOC(C)(c1ccccc1)c1ccc(Cl)cc1 (configuration not stated) | inactive | – |
| Cc1ccc(NC(=O)c2cc(S(=O)(=O)NCCC3=CCCCC3)ccc2F)cc1C | inconclusive [inhibitor, partial curve, poor fit] | – |
| Cc1cccc(-c2nc3scc(CCNS(=O)(=O)c4ccc(F)cc4C)n3n2)c1 | inconclusive [inhibitor, partial curve, poor fit] | – |
| O=C(CCCc1nc(-c2ccccc2)no1)Nc1cc(C(F)(F)F)cc(C(F)(F)F)c1 | inconclusive [inhibitor, partial curve] | – |
| CC(C)C(C(=O)N(C)C(C)C(N)=O)N(C)C(=O)C1CCCN1C(=O)/C=C/C=C/C(O)C(C)O (configuration not stated) | inactive | – |
| Cc1oc(-c2ccc(C(=O)Nc3cccc(C(F)(F)F)c3)cc2)nc1CSc1ccccc1 | inconclusive [inhibitor, single point] | – |
| Cc1c(C)n(Cc2ccccc2)c2ccc(C(=O)NCc3ccc(OC(C)C)cc3)cc12 | inactive | – |
| Fc1ccc(Nc2nc(SCc3ccccc3Cl)nc3ccccc23)cc1 | inconclusive [inhibitor, single point] | – |
| Cc1ccc(CSC2=Nc3ccccc3C3=NC(CCC(=O)NC4CCCCC4)C(=O)N23)cc1 (configuration not stated) | – | inconclusive: -31.8% [inhibitor] |

| SMILES | Potency | activity change, negative = inhibition |
| --- | --- | --- |
| CCc1ccc(C(=O)CC2(O)C(=O)N(CCc3ccccc3)c3ccc(Br)cc32)cc1 (configuration not stated) | inconclusive [inhibitor, partial curve, poor fit] | – |
| CCc1c(C)sc2c1CCN(Cc1cccc(OC)c1)C2c1ccccc1 (configuration not stated) | inactive | – |
| COc1ccc(N(Cc2ccccc2)C(=O)c2nc(S(C)(=O)=O)ncc2Cl)cc1 | inactive | – |
| O=[N+]([O-])c1ccc(Oc2ccc3c(c2)CCC(c2ccccc2)O3)nc1 (configuration not stated) | inactive | – |
| COc1cccc(/C=C/c2onc(C)c2S(=O)(=O)N2CCC(C(=O)N3CCCCC3)CC2)c1 | inconclusive [inhibitor, partial curve, poor fit] | – |
| COc1ccc(Cl)cc1NC(=O)Cn1c(=O)oc2cc(S(=O)(=O)N3CCCCCC3)ccc21 | inactive | – |
| O=S(=O)(Nc1cccc(C(F)(F)F)c1)c1ccc(NS(=O)(=O)c2ccc3c(c2)OCCO3)cc1 | inconclusive [inhibitor, partial curve, poor fit] | – |
| C=C(COC(=O)C(O)C(O)CN)C12OC1C1(C)C(=CC2=O)C(O)C(O)CC1C (configuration not stated) | inactive | – |
| Cc1ccc(Sc2c(C(=O)NCc3cccc(F)c3)[nH]c3ccccc23)cc1 | inactive | – |
| O=C(O)C(O[C@@H]1O[C@H](CO[C@@H]2O[C@H](CO)[C@@H](O)[C@H](O)[C@H]2O)[C@@H](O)[C@H](O)[C@H]1O)c1ccccc1 (some centres not stated) | inactive | – |
| O=C(CC1N=C2c3ccccc3N=C(SCc3ccc(F)cc3)N2C1=O)NC1CCCCC1 (configuration not stated) | – | inconclusive: -52.2% [inhibitor] |
| Cc1ccc(CNc2nc3ccc(Cl)cc3n3cnnc23)cc1 | inconclusive [inhibitor, single point] | – |
| CCCCCCCCCCCCCC[N+](C)(C)C | inactive | – |
| COc1cc(OC)c(OC)cc1CN1CCc2nc(Nc3ccc4c(c3)OCCO4)ncc2C1 | inactive | – |
| COC(=O)c1c(-c2cccs2)csc1NC(=O)c1ccc(Br)cc1 | inconclusive [inhibitor, single point] | – |
| O=C(NCCc1csc(-c2ccc(C(F)(F)F)cc2)n1)c1ccc(F)c(F)c1 | inconclusive [inhibitor, partial curve] | – |
| CC(C)C[C@H](C(=O)O)c1cc(-c2ccc(C(F)(F)F)cc2)cc(-c2ccc(C(F)(F)F)cc2)c1 | inconclusive [inhibitor, single point] | – |
| Cc1[nH]n(-c2ccccc2)c(=O)c1C(c1cc(Cl)ccc1O)c1c(C)[nH]n(-c2ccccc2)c1=O | inconclusive [inhibitor, partial curve, poor fit] | – |
| CCOC(=O)c1ccccc1NC(=O)N1CCN(Cc2cc(=O)n3nc(-c4ccccc4)sc3n2)CC1 | inconclusive [inhibitor, full curve, poor fit] | – |
| COc1cccc(-n2cc(C(=O)Nc3cccc(C(F)(F)F)c3)c3ccccc3c2=O)c1 | inconclusive [inhibitor, single point] | – |
| CCc1ccc(NS(=O)(=O)c2ccc3oc(=O)c4ncn(CC)c4c3c2)cc1 | inconclusive [inhibitor, partial curve, poor fit] | – |

| SMILES | Potency | activity change, negative = inhibition |
| --- | --- | --- |
| CN(CC(=O)NCc1ccc(Cl)cc1)S(=O)(=O)c1ccc2[nH]c3c(c2c1)CCCC3 | inconclusive [inhibitor, partial curve, poor fit] | – |
| COc1ccccc1CNc1nc(-c2ccco2)nn1C(=O)c1cc(OC)c(OC)c(OC)c1 | inconclusive [inhibitor, partial curve, poor fit] | – |
| CCCN(CCC)CCCNC(=O)c1cnn(-c2ccc(F)cc2)c1-n1cccc1 | inactive | – |
| Nc1nc(-n2cc(C(=O)O)c(=O)c3cc(F)c(N4CC(O)C4)c(Cl)c32)c(F)cc1F | inactive | – |
| COc1cc(-c2nc(SCC(=O)Nc3ccc(C)cc3)c(-c3ccc(F)cc3)[nH]2)cc(OC)c1OC | inconclusive [inhibitor, single point] | – |
| CC(=O)N1CCc2c(sc3nc(SCC(C)C)n(-c4ccc(C)c(Cl)c4)c(=O)c23)C1 | inconclusive [inhibitor, single point] | – |
| Cc1ccc(-c2nnc(Nc3ccc(OC(F)(F)Cl)cc3)c3ccccc23)cc1S(=O)(=O)NC(C)(C)CO | inconclusive [inhibitor, partial curve] | – |
| COc1ccc(-c2cc(C(=O)Oc3ccc(C)cc3)c3cc(C)ccc3n2)cc1 | inconclusive [inhibitor, partial curve, poor fit] | – |
| Cc1cc(=O)n(C(C)C(=O)N2CCCc3ccccc32)c2c1c(C)nn2-c1ccccc1 (configuration not stated) | inconclusive [inhibitor, single point] | – |
| Cc1[nH]n2c(=O)cc(-c3ccc(Cl)cc3)nc2c1-c1ccccc1 | inconclusive [inhibitor, single point] | – |
| Cc1c(C(=O)N2CCCCC2)c(S(=O)(=O)NCc2ccc(N(C)C)cc2)c(C)n1C | inconclusive [inhibitor, partial curve, poor fit] | – |
| Cc1ccc(-n2cnc3cc(C(=O)NC4CCCCCC4)ccc32)c(C)c1 | inconclusive [inhibitor, partial curve, poor fit] | – |
| CCc1ccc(Cn2nnc3c(=O)[nH]c(C4CCCN(C(=O)c5cccc(Cl)c5)C4)nc32)cc1 (configuration not stated) | inconclusive [inhibitor, single point] | – |
| COc1ccc(OC)c(NC(=O)CSc2c3c(nc4cc(Cl)ccc24)CCCC3)c1 | inconclusive [inhibitor, full curve, poor fit] | – |
| COC(=O)c1cc(Cl)c(NC(C)=O)cc1OC | inactive | – |
| Cc1ccc(Cn2c(CN3CCC(C(=O)NCc4cccnc4)CC3)cc3ccccc32)cc1 | inconclusive [inhibitor, single point] | – |
| COc1ccc(-c2noc(CN(C(=O)c3ccccc3Cl)C(C)C)n2)cc1 | inconclusive [inhibitor, partial curve, poor fit] | – |
| CCCC(=O)Nc1nnc(SCc2cc(=O)n3ccccc3n2)s1 | inconclusive [inhibitor, single point] | – |
| Cc1ccc(C)c(NC(=O)CSc2nnc3[nH]c(=O)cc(-c4ccccc4)n23)c1 | inactive | – |
| COc1cc(C(=O)NC(c2ccccc2Cl)c2cc(Cl)c3cccnc3c2O)cc(OC)c1OC (configuration not stated) | inactive | – |
